The source of these data is article PMC4336329 (PLoS ONE, 2015).

Hit rate of the full screen: of about 310,000 compounds, about 2,200 (0.71%) showed an effect of 50% or more. Effects have a minus sign here. The list shows a part of the results.

In this assay the target is human ether-à-go-go-related gene (hERG) potassium channel (human, UniProt Q12809). Nature of the assay: primary screen, population patch clamp on CHO cells stably expressing hERG.
Sequence of human ether-à-go-go-related gene (hERG) potassium channel (Q12809 whole entry, looked up): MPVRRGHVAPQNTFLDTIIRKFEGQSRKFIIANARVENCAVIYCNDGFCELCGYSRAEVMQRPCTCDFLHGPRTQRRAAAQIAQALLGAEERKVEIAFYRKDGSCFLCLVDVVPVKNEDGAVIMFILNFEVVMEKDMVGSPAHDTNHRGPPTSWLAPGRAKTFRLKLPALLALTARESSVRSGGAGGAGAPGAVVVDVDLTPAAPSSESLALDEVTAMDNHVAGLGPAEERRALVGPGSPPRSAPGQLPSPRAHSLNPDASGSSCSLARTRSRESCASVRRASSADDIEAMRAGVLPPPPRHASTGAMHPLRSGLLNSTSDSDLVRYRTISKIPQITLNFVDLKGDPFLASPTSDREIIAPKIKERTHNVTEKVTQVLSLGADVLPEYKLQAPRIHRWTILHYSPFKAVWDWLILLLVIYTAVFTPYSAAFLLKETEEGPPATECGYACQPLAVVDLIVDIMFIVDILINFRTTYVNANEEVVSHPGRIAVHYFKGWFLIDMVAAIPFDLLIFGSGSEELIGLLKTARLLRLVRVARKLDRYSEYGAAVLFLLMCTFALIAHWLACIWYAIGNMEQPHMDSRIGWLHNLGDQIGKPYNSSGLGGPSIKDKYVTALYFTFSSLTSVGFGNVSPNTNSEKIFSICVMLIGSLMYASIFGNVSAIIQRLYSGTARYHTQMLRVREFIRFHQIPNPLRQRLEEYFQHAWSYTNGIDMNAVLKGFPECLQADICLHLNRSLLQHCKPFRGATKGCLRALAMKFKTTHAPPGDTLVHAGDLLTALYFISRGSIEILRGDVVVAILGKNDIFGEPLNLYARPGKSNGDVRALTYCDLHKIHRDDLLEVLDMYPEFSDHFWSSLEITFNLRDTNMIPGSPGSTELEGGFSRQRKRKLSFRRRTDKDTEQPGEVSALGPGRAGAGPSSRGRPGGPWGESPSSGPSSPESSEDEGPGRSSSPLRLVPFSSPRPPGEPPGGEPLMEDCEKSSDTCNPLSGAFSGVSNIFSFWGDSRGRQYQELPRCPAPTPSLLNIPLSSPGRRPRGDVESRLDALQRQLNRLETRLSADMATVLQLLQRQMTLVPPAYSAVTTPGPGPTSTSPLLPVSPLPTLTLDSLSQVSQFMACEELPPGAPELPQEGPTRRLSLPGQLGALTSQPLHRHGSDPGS
Consider `Cc1ccc(-n2c(C)cc(C(=O)COc3c(CO)cc(F)cc3CO)c2C)cc1C`, for which the “hERG current change (%, negative = inhibition) at 1uM” value is reported as -1.02%.
With `Cl.OC(COc1ccc(Cl)cc1)CN1CCCCC1` (stereo not drawn), the “hERG current change (%, negative = inhibition) at 1uM” value is reported as -29.8%.
The value for `Cc1ccccc1-n1c(C)cc(/C=C2/C(=N)N3C(c4ccccc4)=CSC3=NC2=O)c1C` was 12.2%; that for `O=C(CSc1nc2ccccc2c(=O)n1-c1ccc(F)cc1)Nc1ccc2c(c1)CCC2` was 11.7%; that for `O=C(CNC(=O)c1ccccc1)OCC(=O)c1ccc(Cl)s1` was 3.78%.
Take `COc1cc(CN2CCC(C(=O)NC3CCCC3)CC2)cc(Br)c1O.O=C(O)C(=O)O`: the “hERG current change (%, negative = inhibition) at 1uM” value was -13%.
For `COc1ccc(N2CCN(C(=O)c3cc(N4C(=O)C5C6CCC(C6)C5C4=O)ccc3Cl)CC2)cc1` (stereo not drawn), the “hERG current change (%, negative = inhibition) at 1uM” value was 5.73%.
As for `CC(NC(=O)Nc1ccc(O)cc1)(C(F)(F)F)C(F)(F)F`, the “hERG current change (%, negative = inhibition) at 1uM” value was 18%.
The value for `CCn1ncc(C(=O)Nc2ccccc2C)c1C` was 4.2%; that for `CCOc1ccc(C(CC(=O)O)NC(=O)C(CC)c2ccccc2)cc1` (stereo not drawn) was 9%.
In the case of `COc1ccc(-c2nnc(SC)n2C)cc1`, the “hERG current change (%, negative = inhibition) at 1uM” value is on record as 5.58%.
As to `Cc1ccc(S(=O)(=O)N2CCN(c3nccnc3C#N)CC2)cc1`, the “hERG current change (%, negative = inhibition) at 1uM” value is reported as -3.83%.
The value for `Cc1ccc(S(=O)(=O)NCCCCCC(=O)Nc2ccccc2C)cc1` was 5.43%.
The value for `Cc1ccccc1NC(=O)c1ccccn1` was 11.4%; that for `COc1cc(-c2nnc(SCC(=O)c3ccccc3)o2)cc(OC)c1OC` was 12.8%; that for `COc1cccc2c1cc1c(=O)n(CC(=O)NCCCc3ccccc3)nc(C)n12` was 3%.
The value for `Cc1ccccc1C[n+]1cccc2ccccc21.[Br-]` was 0.0109%; that for `CCOc1ccc(N2C(=O)Nc3ccc(Br)cc3C2(O)C(=O)NCCCN(C)C)cc1` (stereo not drawn) was 12.6%; that for `Cl.OC(COc1ccc2c(c1)OCO2)CN1CCN(c2ccccc2)CC1` (stereo not drawn) was 12.7%.
`CC(=O)c1cccc(NC(=S)NC(=O)c2cncc(Br)c2)c1`: the “hERG current change (%, negative = inhibition) at 1uM” value is 10.1%.
Take `C[C@H](NC(=O)c1nc[nH]c1C(=O)NCc1ccccc1)c1ccccc1`: the “hERG current change (%, negative = inhibition) at 1uM” value worked out at 12.1%.
The value for `CC1CCCCC1NC(=O)c1nnc(Cc2ccc(Cl)cc2)o1` (stereo not drawn) was -0.665%; that for `O=C(Nc1ccccn1)c1ccc(S(=O)(=O)N2CCCCC2)cc1` was 8.6%.
The value for `CCOC(=O)c1nn(-c2ccccc2F)c2nc(Nc3ccccc3)cc(=O)n12` was 9.69%; that for `Cc1c(C(=O)N2CCc3ccccc3C2)sc2nc(-c3ccccc3)cn12` was 8.64%.
The value for `CCC(C)Sc1nc2c(cnn2-c2ccc(C)c(C)c2)c(=O)[nH]1` (stereo not drawn) was 0.874%; that for `OCc1cn(-c2ccccc2)nc1-c1ccc(Br)cc1` was 12.6%.
Regarding `O=C(c1noc2c1CCCC2)N1CCN(Cc2ccccc2)CC1`, the “hERG current change (%, negative = inhibition) at 1uM” value came out at 4.17%.
Take `O=C(Cn1cc(Br)ccc1=O)Nc1ccc2c(c1)OCO2`: the “hERG current change (%, negative = inhibition) at 1uM” value was found to be 19.5%.
The value for `O=C(N/N=C/c1ccco1)c1cc(-c2ccccc2)nc2ccccc12` was 8.72%; that for `CC1=CC(C)=[NH+]c2ccc(C)cc2N1.[Cl-]` was 4.42%; that for `CCOc1cccc(C(=O)Nc2cccnc2)c1` was 4.56%.
As to `CCCC(=O)Nc1ccc(N2CCN(C(=O)c3cccs3)CC2)cc1`, the “hERG current change (%, negative = inhibition) at 1uM” value was -1.23%.
For the compound `COc1cc(OC)cc(C(=O)N2CCN(Cc3ccc4c(c3)OCO4)CC2)c1.O=C(O)C(=O)O`, the “hERG current change (%, negative = inhibition) at 1uM” value is reported as 8.19%.
Turning to `Cc1cc(C=O)c(C)n1-c1sc2c(c1C(=O)O)CCCC2`, the “hERG current change (%, negative = inhibition) at 1uM” value was 7.27%.
The value for `O=C(CN1CCN(c2ccccc2)CC1)c1ccc2cc[nH]c2c1` was 11.6%; that for `Cc1ccc(S(=O)(=O)N2CCCC(C(=O)NC3CCCC3)C2)cc1Cl` (stereo not drawn) was 24.8%; that for `Cc1ccccc1OCC(=O)NCCNC(=O)c1cccnc1` was 22.9%.
The value for `CCCCS(=O)(=O)N1C2=NC(C(=O)OC)=C(C(=O)OC)[C@@H]3N(C)c4ccc(OC)cc4[C@]23C[C@H]1C(=O)OC` was 8.48%; that for `O=C(CNCC1CCCO1)Nc1ccc(N2CCCCCC2)cc1.O=C(O)C(=O)O` (stereo not drawn) was -7.7%; that for `O=C(O)c1ccc(N=Cc2c(O)ccc3ccccc23)cc1` was 17.8%.
The value for `CN(C)S(=O)(=O)c1cc(C(=O)NCC2CCCO2)c(Cl)cc1Cl` (stereo not drawn) was 7.06%; that for `CCCCn1c(O)c(C(C)=NCCN2CCCCC2)c(=O)[nH]c1=O` was -1.95%.
Turning to `O=c1[nH]nc2c3ccccc3cnn12`, the “hERG current change (%, negative = inhibition) at 1uM” value is listed as 3.75%.
The value for `COc1ccc(NC(=O)OCCN2CCN(Cc3ccccc3)CCC2=O)cc1` was 6.27%.
The value for `O=[N+]([O-])c1ccc(N2CCN(C(=S)c3cccc([N+](=O)[O-])c3)CC2)cc1` was -16.7%; that for `Cc1cc2c(c(=O)n1Cc1cccnc1)C(c1ccc(F)cc1)C(C#N)=C(N)O2` (stereo not drawn) was 10.6%; that for `COc1ccc(NC(=S)c2ccc3ccccc3n2)cc1` was 26.7%.
The value for `COc1cc(OC)c(C2C(C#N)=C(N)OC3=C2C(=O)CC(C)(C)C3)cc1OC` (stereo not drawn) was 10.2%; that for `Cc1cccc(C(=O)Nc2ccc(N3CCN(C(=O)c4ccco4)CC3)cc2)c1` was 10.5%; that for `C/C(CC(=O)Nc1ccccn1)=N\NC(=O)c1ccc(C)cc1` was 2.42%.
For the compound `C=CCN(C(=O)CNC(=O)c1ccco1)C(C(=O)NC1CCCCC1)c1ccc(OC)cc1` (stereo not drawn), the “hERG current change (%, negative = inhibition) at 1uM” value is 14.4%.
The value for `COc1ccc(C(=O)N2CCN(C(=O)c3ccncc3)CC2)cc1` was 13.8%.
The value for `COc1ccc(/C=N/NC(=O)C(=O)NCc2cccnc2)cc1OC` was -11.8%; that for `O=S(=O)(c1cc(Cl)ccc1Cl)N1CCN(c2ccccn2)CC1` was 9.68%; that for `Cc1ccc(CC(=O)Nc2ccc(S(=O)(=O)N3CCOCC3)cc2)cc1` was 7.26%.
The value for `CN(C)C(=O)Oc1ccc(Br)c2ccccc12` was 8.12%.
